According to PubChem BioAssay (NCI):
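The compound was tested at five concentrations on cells cultured in 96-well plates, with a 48-hour exposure period. GI50 marks 50% less growth. TGI denotes the concentration required for complete inhibition of growth.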

Test system: NCI-H322M lung
Assay: growth of human tumour cells (NCI), 48 h

SMILES | TGI [µM] | GI50 [µM]
CN(C)c1ccc(/C=c2/c3ccccc3n3c2cc(-c2ccc(Cl)cc2)[n+]3C)cc1 | 1.65 | 
COc1ccc2c(c1)CCC1C2CCC2(C)C3=CC(O)CCC3CC12 (stereo not drawn) | 31 | 16.9
O=c1c(O)c(-c2ccccc2)n(O)c2ccc(Cl)cc12 | > 100 | 
C/C(=N\NC(C)(C)C)c1sc(-c2nc(C)c(/C(C)=N/NC(C)(C)C)s2)nc1C | > 100 | 
NC1CCC[C@H]1O (stereo partly drawn) | > 100 | 
CC(C)OP(=O)(OC(C)C)C([CH2][Sn]([CH3])([CH3])[Cl])P(=O)(OC(C)C)OC(C)C | 81.4 | 26.1
Cc1coc2c1[C@@H](O)[C@@]1(C)[C@H](CCC[C@@H]1C)C2 | > 100 | 
COc1ccc2cc(C(=O)Nc3ccc(O)c(C(=O)O)c3)ccc2c1OC | > 100 | 
CC(C)(OCc1ccccc1)c1ccccc1P(c1ccccc1)c1ccccc1 | > 100 | 
CN1C(=O)/C(=C/c2c(Cl)[nH]c3ccccc23)c2ccccc21 | 74.1 | 22.5
COc1ccc(C(=O)n2nc(/C=C/c3ccc(O)c(OC)c3)cc2/C=C/c2ccc(O)c(OC)c2)cc1 | 10.5 | 1.29
CCCN1C(=O)/C(=C/c2cccc(O)c2)SC1=Nc1ccccc1 | 27.5 | 13.8
O=C1c2ccccc2C(=O)c2c1ccc(C(Br)Br)c2Cl | 23.1 | 11.1
O=C(CCN1CCCCC1)Nc1ccc2sc3ccccc3c(=O)c2n1 | 50.1 | 
CNc1cc(OCc2ccccc2)c(OC)cc1C(=O)N1CCC[C@H]1CO | > 100 | 
Oc1c(C(O)c2ccccn2)ccc2ccccc12 (stereo not drawn) | > 100 | 
Nc1ccc2nc3n(c(=O)c2c1)CCCCC3 | > 100 | 
O=C(COc1cccc(/C=C2/Oc3ccccc3C2=O)c1)Nc1nccs1 | > 100 | 38.5
c1ccc2c(c1)c(N1CCCCC1)cc1nc3c(cc(N4CCCCC4)c4ccccc43)nc12 | > 100 | 

SMILES | TGI [µM] | GI50 [µM]
CCCCCCCCCCCC1=NCCN1 | > 100 | 
O=C(Nc1ccc(Cl)cc1)Nc1ccc(Oc2nncc3ccccc23)cc1 | 9.51 | 2.6
CCCCCCCCCCCC(=O)c1c(O)cc(C)oc1=O | > 100 | 
CC(=O)N1N=C(c2cc(C)ccc2O)CC1c1cccc(Cl)c1 (stereo not drawn) | > 100 | 
O=c1[nH]c2ccc(C(F)(F)F)cc2nc1Cc1ccccc1 | > 100 | 
O=C1c2ccccc2C2=Cc3ccccc3C(O)N12 (stereo not drawn) | > 100 | 
COc1cc(-c2cc(/C=C/C(=O)c3ccc(N)cc3)[nH]n2)cc(OC)c1OC | 5.59 | 2.23
CC1=CCCC(C)(O)C2CC(CCC3(C)OC3CC1)C(C)C(=O)O2 (stereo not drawn) | > 100 | 
N/N=C(/Cc1ccccc1)NNC(N)=S | > 100 | 
N#Cc1c(N)nc(NCc2ccccc2)c(C#N)c1-c1ccc(Cl)cc1 | 85.9 | 19.1
Cc1ccc2nc(-n3c(/C=C/c4ccccc4O)nc4ccccc4c3=O)sc2c1 | > 100 | 
COC(=O)c1nn(-c2ccccc2)c(=O)cc1N=[N+]=[N-] | > 100 | 
O=c1ssc2ncccc12 | > 100 | 
O=C(/C=C/c1c(O)ccc2ccccc12)c1ccccc1Cl | 78.3 | 
O=C(CCc1n[nH]c(=S)o1)Nc1cc(Cl)c(Cl)cc1Cl | > 100 | 
O=C1/C(=C/c2ccc(O)c(O)c2)COc2ccc(-c3ccccc3)cc21 | 13.9 | 3.21
COc1ccc(N2C(=O)CC(=O)N(C(=O)CCCCCCCCC(=O)N3C(=O)CC(=O)N(c4ccc(OC)cc4)C3=S)C2=S)cc1 | > 100 | 
CN(C)CCc1ccc(Cl)cc1Cl | > 100 | 
